In publication doi:10.1101/2024.11.01.621267 (bioRxiv, 2024):

Target: purified recombinant His6-RACK1 (human, UniProt P63244)
Assay: pull-down; StrepII-tagged protein immobilised from cleared lysate on StrepTactin Sepharose and washed; 500 pmol of purified RACK1 added; 50 mM HEPES pH 8.0, 500 mM NaCl, 0.03% Tween-20; eluted with 50 mM biotin; Coomassie staining
Details: both partners purified

B1: recombinant FL-LARP4-Strep-tagII (natural protein)
chain: not shown
notes: also called LARP4-WT; pLIB-LARP4; source: Sf21 insect cells (baculovirus), cleared lysate immobilised on StrepTactin resin and washed; not shown: StrepII, C-terminal, kept
  binding result: binds
